In the supplement of paper PMC9433436:
± gives the standard deviation of the averaged measurements. In all, about 4,100 sequences were measured (“relative kcat/Km (krel) vs genomic leader AAAGAU”: median about 1.7, highest 2% from about 6.5 on). Only a part is listed here, and it is no random draw.

Molecular target: T1, E. coli RNase P holoenzyme (M1 P RNA + rnpA protein) (UniProt P0A7Y8)
T1 sequence: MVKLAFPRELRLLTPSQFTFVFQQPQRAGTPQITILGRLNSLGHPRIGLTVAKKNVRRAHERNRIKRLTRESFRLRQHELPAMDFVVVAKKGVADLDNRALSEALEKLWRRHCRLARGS
Experiment: relative kcat/Km (krel) vs genomic leader AAAGAU (relative (reference leader = 1)); higher = faster RNase P cleavage
Procedure, shortened: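 A precursor tRNA-Met pool randomized at leader positions −6 to −1 was cleaved by E. coli RNase P holoenzyme (P RNA plus C5 protein) under multiple-turnover conditions at 37 °C in 50 mM Tris-HCl pH 8, 100 mM NaCl, 17.5 mM MgCl2. Unreacted precursor was gel-purified at ~5–30% conversion, converted to cDNA libraries and Illumina-sequenced. Relative kcat/Km (krel) was calculated by internal competition kinetics from read ratios, normalised to the genomic leader, averaging two technical replicates.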

[1] = fraction of substrate reacted: ~9-10% (9.79% repeat 1, 9.1% repeat 2)
[2] = fraction of substrate reacted: ~13-16% (15.68% repeat 1, 13.17% repeat 2)
[3] = fraction of substrate reacted: ~26-29% (28.66% repeat 1, 26.4% repeat 2)

In the case of GCTTAC, the “relative kcat/Km” value [1] is reported as 2.22 ± 0.41, the “relative kcat/Km” value [2] is reported as 2.79 ± 0.81 and the “relative kcat/Km” value [3] is reported as 4.83 ± 1.6.
ATGATT was tested, and the “relative kcat/Km” value [1] was 1.48 ± 0.2, the “relative kcat/Km” value [2] was 1.78 ± 0.25 and the “relative kcat/Km” value [3] was 2.22 ± 0.77.
With GGGAAT the “relative kcat/Km” value [1] was 0.982 ± 0.17, the “relative kcat/Km” value [2] was 1.33 ± 0.69 and the “relative kcat/Km” value [3] was 1.92 ± 1.2.
GCACGG was tested, and the “relative kcat/Km” value [3] was 0.359 ± 0.29.
For GGCTCA, the “relative kcat/Km” value [1] was 1.63 ± 0.079, the “relative kcat/Km” value [2] was 1.25 ± 0.021 and the “relative kcat/Km” value [3] was 1.77 ± 0.47.
In the case of GCTAGA, the “relative kcat/Km” value [1] is reported as 1.329 ± 0.007, the “relative kcat/Km” value [2] is reported as 1.71 ± 0.21 and the “relative kcat/Km” value [3] is reported as 2.45 ± 0.62.
For GTTAGA, the “relative kcat/Km” value [1] was 2.272 ± 0.0048, the “relative kcat/Km” value [2] was 3 ± 0.72 and the “relative kcat/Km” value [3] was 4.67 ± 1.6.
In the case of TAGAAG, the “relative kcat/Km” value [2] is reported as 0.971 ± 0.93 and the “relative kcat/Km” value [3] is reported as 2.34 ± 0.089.
For CTACAG, the “relative kcat/Km” value [2] was 1.24 ± 0.24 and the “relative kcat/Km” value [3] was 1.8 ± 0.45.
With CATTGA the “relative kcat/Km” value [1] was 4.03 ± 2.1, the “relative kcat/Km” value [2] was 4.09 ± 1.6 and the “relative kcat/Km” value [3] was 6.51 ± 2.6.
CTTTGC was tested, and the “relative kcat/Km” value [1] was 3.95 ± 1.4, the “relative kcat/Km” value [2] was 4.28 ± 0.71 and the “relative kcat/Km” value [3] was 5.73 ± 1.8.
With CAGTCA the “relative kcat/Km” value [1] was 1.56 ± 0.78, the “relative kcat/Km” value [2] was 1.64 ± 1.4 and the “relative kcat/Km” value [3] was 2.56 ± 1.5.
CGCGAC was tested, and the “relative kcat/Km” value [1] was 1.93 ± 0.92, the “relative kcat/Km” value [2] was 2.57 ± 0.49 and the “relative kcat/Km” value [3] was 4.42 ± 1.3.
For TACCTC, the “relative kcat/Km” value [1] was 2.58 ± 1.4, the “relative kcat/Km” value [2] was 2.74 ± 0.5 and the “relative kcat/Km” value [3] was 4.62 ± 1.9.
For ACGTAG, the “relative kcat/Km” value [1] was 1.96 ± 1.1, the “relative kcat/Km” value [2] was 1.27 ± 0.019 and the “relative kcat/Km” value [3] was 2.69 ± 1.1.
With AATTTA the “relative kcat/Km” value [1] was 1.65 ± 0.69, the “relative kcat/Km” value [2] was 1.63 ± 0.14 and the “relative kcat/Km” value [3] was 2.33 ± 0.76.
TGAGTT was tested, and the “relative kcat/Km” value [1] was 1.22 ± 0.22, the “relative kcat/Km” value [2] was 1.26 ± 0.098 and the “relative kcat/Km” value [3] was 0.851 ± 0.034.
For TTCTCG, the “relative kcat/Km” value [1] was 2.16 ± 1.3, the “relative kcat/Km” value [2] was 2.86 ± 0.45 and the “relative kcat/Km” value [3] was 4.91 ± 1.5.
With CCCAGT the “relative kcat/Km” value [1] was 1.46 ± 0.43, the “relative kcat/Km” value [2] was 1.08 ± 0.5 and the “relative kcat/Km” value [3] was 0.854 ± 0.22.
With GTACAC the “relative kcat/Km” value [1] was 2.77 ± 1.4, the “relative kcat/Km” value [2] was 3.51 ± 0.54 and the “relative kcat/Km” value [3] was 4.87 ± 2.1.
For CCAGGA, the “relative kcat/Km” value [3] was 0.348 ± 0.1.
ATTGTT was tested, and the “relative kcat/Km” value [1] was 0.98 ± 0.36, the “relative kcat/Km” value [2] was 0.898 ± 0.69 and the “relative kcat/Km” value [3] was 1.14 ± 0.62.
In the case of TGACGG, the “relative kcat/Km” value [3] is reported as 0.732 ± 0.19.
With TGTTCG the “relative kcat/Km” value [1] was 1.17 ± 0.34, the “relative kcat/Km” value [2] was 0.953 ± 0.14 and the “relative kcat/Km” value [3] was 2.21 ± 0.63.
TTAGGG was tested, and the “relative kcat/Km” value [1] was 0.357 ± 0.048, the “relative kcat/Km” value [2] was 1.11 ± 0.86 and the “relative kcat/Km” value [3] was 2.15 ± 2.1.
With CATCCT the “relative kcat/Km” value [1] was 2.74 ± 1.2, the “relative kcat/Km” value [2] was 2.46 ± 0.37 and the “relative kcat/Km” value [3] was 3.05 ± 1.3.
With GACTCC the “relative kcat/Km” value [1] was 3.31 ± 0.62, the “relative kcat/Km” value [2] was 4.26 ± 0.76 and the “relative kcat/Km” value [3] was 5.61 ± 2.
For GCACTG, the “relative kcat/Km” value [3] was 0.928 ± 0.31.
With AAACTT the “relative kcat/Km” value [1] was 1.24 ± 0.78, the “relative kcat/Km” value [2] was 1.5 ± 0.34 and the “relative kcat/Km” value [3] was 1.72 ± 0.4.
For AGAGCA, the “relative kcat/Km” value [1] was 1.6 ± 1.4, the “relative kcat/Km” value [2] was 1.29 ± 0.48 and the “relative kcat/Km” value [3] was 1.79 ± 0.37.
GACCGA was tested, and the “relative kcat/Km” value [1] was 3.3 ± 0.89, the “relative kcat/Km” value [2] was 4.27 ± 2.1 and the “relative kcat/Km” value [3] was 6.73 ± 2.8.
With AGGACT the “relative kcat/Km” value [2] was 0.804 ± 0.14 and the “relative kcat/Km” value [3] was 0.609 ± 0.17.
For GGCTGG, the “relative kcat/Km” value [1] was 0.0825 ± 0.053 and the “relative kcat/Km” value [3] was 0.197 ± 0.19.
In the case of ACAACA, the “relative kcat/Km” value [1] is reported as 1.44 ± 0.56, the “relative kcat/Km” value [2] is reported as 0.464 ± 0.13 and the “relative kcat/Km” value [3] is reported as 1.28 ± 0.044.
With CTAATG the “relative kcat/Km” value [3] was 1.01 ± 0.032.
AGGAGA was tested, and the “relative kcat/Km” value [1] was 1.11 ± 0.84, the “relative kcat/Km” value [2] was 1.25 ± 0.32 and the “relative kcat/Km” value [3] was 1.37 ± 0.089.
With TGTTCT the “relative kcat/Km” value [1] was 1.986 ± 0.0021, the “relative kcat/Km” value [2] was 2.58 ± 0.73 and the “relative kcat/Km” value [3] was 4.41 ± 1.8.
For CTATCG, the “relative kcat/Km” value [1] was 0.484 ± 0.45, the “relative kcat/Km” value [2] was 0.416 ± 0.1 and the “relative kcat/Km” value [3] was 0.968 ± 0.63.
In the case of CATGGA, the “relative kcat/Km” value [3] is reported as 1.18 ± 0.94.
For TTCGTT, the “relative kcat/Km” value [1] was 1.6 ± 0.73, the “relative kcat/Km” value [2] was 2.49 ± 0.11 and the “relative kcat/Km” value [3] was 3.56 ± 1.5.
For AATGAC, the “relative kcat/Km” value [1] was 1.6 ± 0.14, the “relative kcat/Km” value [2] was 2.43 ± 0.32 and the “relative kcat/Km” value [3] was 3.41 ± 1.5.
With GACATA the “relative kcat/Km” value [1] was 3.56 ± 1.6, the “relative kcat/Km” value [2] was 4.08 ± 0.23 and the “relative kcat/Km” value [3] was 5.57 ± 2.4.
In the case of TGTAGG, the “relative kcat/Km” value [2] is reported as 0.426 ± 0.27 and the “relative kcat/Km” value [3] is reported as 1.61 ± 0.48.
In the case of TAGGAT, the “relative kcat/Km” value [1] is reported as 0.85 ± 0.42 and the “relative kcat/Km” value [3] is reported as 1.93 ± 1.8.
In the case of CCGCAC, the “relative kcat/Km” value [1] is reported as 2.75 ± 0.53, the “relative kcat/Km” value [2] is reported as 2.27 ± 0.52 and the “relative kcat/Km” value [3] is reported as 3.95 ± 1.
With TACATC the “relative kcat/Km” value [1] was 3.03 ± 0.57, the “relative kcat/Km” value [2] was 4.44 ± 0.76 and the “relative kcat/Km” value [3] was 6.8 ± 2.7.
For GAATTG, the “relative kcat/Km” value [3] was 0.858 ± 0.51.
For TAGCGG, the “relative kcat/Km” value [1] was 0.559 ± 0.074, the “relative kcat/Km” value [2] was 0.769 ± 0.42 and the “relative kcat/Km” value [3] was 0.842 ± 0.027.
CAGGCC was tested, and the “relative kcat/Km” value [1] was 1.58 ± 1.1, the “relative kcat/Km” value [2] was 1.08 ± 0.37 and the “relative kcat/Km” value [3] was 0.865 ± 0.12.
For CAGGAG, the “relative kcat/Km” value [1] was 0.78 ± 0.77 and the “relative kcat/Km” value [3] was 0.626 ± 0.52.
For TCTCAA, the “relative kcat/Km” value [1] was 2.39 ± 1.3, the “relative kcat/Km” value [2] was 2.88 ± 0.5 and the “relative kcat/Km” value [3] was 4.05 ± 1.5.
With AGGCCT the “relative kcat/Km” value [1] was 0.882 ± 0.08, the “relative kcat/Km” value [2] was 1.09 ± 0.059 and the “relative kcat/Km” value [3] was 1.22 ± 0.51.
With ATGAAC the “relative kcat/Km” value [1] was 1.53 ± 0.79, the “relative kcat/Km” value [2] was 2.27 ± 0.36 and the “relative kcat/Km” value [3] was 3.69 ± 1.4.
With AGAGTC the “relative kcat/Km” value [1] was 0.78 ± 0.57 and the “relative kcat/Km” value [3] was 0.64 ± 0.34.
In the case of TCCATT, the “relative kcat/Km” value [1] is reported as 4.11 ± 1.2, the “relative kcat/Km” value [2] is reported as 4.85 ± 1.2 and the “relative kcat/Km” value [3] is reported as 7.33 ± 3.2.
In the case of CTCCCG, the “relative kcat/Km” value [2] is reported as 1.39 ± 0.38 and the “relative kcat/Km” value [3] is reported as 2.19 ± 0.18.
With TCTGAG the “relative kcat/Km” value [3] was 1.3 ± 0.34.
With GCGTCA the “relative kcat/Km” value [1] was 1.22 ± 0.66, the “relative kcat/Km” value [2] was 1.3 ± 0.41 and the “relative kcat/Km” value [3] was 1.41 ± 0.12.
In the case of CTGATA, the “relative kcat/Km” value [1] is reported as 0.887 ± 0.39, the “relative kcat/Km” value [2] is reported as 0.874 ± 0.049 and the “relative kcat/Km” value [3] is reported as 1.16 ± 0.54.
GCTTGG was tested, and the “relative kcat/Km” value [1] was 0.631 ± 0.29 and the “relative kcat/Km” value [3] was 0.657 ± 0.29.
GTCGTG was tested, and the “relative kcat/Km” value [2] was 0.243 ± 0.15 and the “relative kcat/Km” value [3] was 1.26 ± 0.04.
In the case of ACGAGA, the “relative kcat/Km” value [1] is reported as 1.59 ± 0.47, the “relative kcat/Km” value [2] is reported as 2.26 ± 0.7 and the “relative kcat/Km” value [3] is reported as 2.67 ± 1.2.
In the case of AGGCAC, the “relative kcat/Km” value [1] is reported as 1.88 ± 0.072, the “relative kcat/Km” value [2] is reported as 0.663 ± 0.19 and the “relative kcat/Km” value [3] is reported as 1.55 ± 0.34.
For TGAATG, the “relative kcat/Km” value [1] was 0.537 ± 0.44, the “relative kcat/Km” value [2] was 0.418 ± 0.011 and the “relative kcat/Km” value [3] was 1.65 ± 0.14.
For AATAGC, the “relative kcat/Km” value [1] was 1.95 ± 0.28, the “relative kcat/Km” value [2] was 2.22 ± 0.098 and the “relative kcat/Km” value [3] was 3.09 ± 1.1.
